Measured values taken from PubChem BioAssay (NCI).
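Tested at 5 concentrations; 48 h exposure; 96-well plates; endpoints linearly interpolated, else capped at highest concentration. GI50 = concentration required for 50% inhibition of growth. TGI: concentration producing complete growth inhibition.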

Tested on: NCI-H322M lung
Assay: NCI tumour cell line growth inhibition, 48 h

`Cc1cc(N=C(N)c2ccccc2)ccc1OCCCCCCCCn1ccnc1` showed a GI50 of 0.534 µM and a TGI of 13.7 µM.
